This note sets out measurements from paper PMC6426988, “Seeding selectivity and ultrasensitive detection of tau aggregate conformers of Alzheimer disease” (Acta Neuropathologica, 2018).

This series concerns the molecule itself. The series is described as follows: co-sedimentation; products of AD RT-QuIC reactions (τ306:K19CFh 1:3, 12 µM total, 10 mM HEPES pH 7.4, 400 mM NaCl, 40 µM heparin, 10 µM ThT, 37 °C, shaking; seeded with sAD or fAD brain homogenate) collected after 20 h, centrifuged at 20,800×g, washed pellet compared with input and supernatant by SDS-PAGE and GelCode Blue stain.

B1: τ306 (tau […], htau40 numbering, cysteine 322 to serine) (domain or fragment)
chain: not shown
notes: stop codon added at residue 379; numbers count on: full-length human tau isoform htau40 (longest human isoform); Cloned into pET-28a right after the N-terminal poly-histidine tag and thrombin site; also called tau306; source: E. coli BL21(DE3), purified (His-Trap FF, acetone precipitation, 8 M GdnHCl, PD-10 desalting); not shown: poly-histidine, N-terminal, kept
With B1, the binding result is “binds”.
